Holding throughout (assay): cell count relative to DMSO control; melanoma cells; higher = more viable cells
What all share (conditions): library dose: low library concentration; 72 h

Assay [1] deals with WM115.
Assay [2] relates to WM1716.
Assay [3] has as its system WM1745.
Assay [4] relates to WM3526.
The subject of assay [5] is WM3619.
The test system of assay [6] is WM451Lu.

This is one part of the list. Most values come without repeats; read them as rough.
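Further: cell number obtained by counting DAPI-stained nuclei in high-throughput microscope images with image analysis software, screen run in 1,536-well plates.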

With `C=CCn1c(=O)c2cnc(Nc3ccc(N4CCN(C)CC4)cc3)nc2n1-c1cccc(C(C)(C)O)n1` + Cc1cc([N+](=O)[O-])ccc1NS(=O)(=O)c1cc(Cl)ccc1Cl [FH535] (first compound 0.02 µM, partner dose 1 µM), the cell count in assay [1] was 85.6%; in assay [2] it was 82.3%; in assay [3], 76.5%; in assay [4], 110%; in assay [5], 76.8%; in assay [6], 105%.
For `CN(C)S(=O)(=O)c1ccc2c(c1)/C(=C/c1cc3c([nH]1)CCCC3)C(=O)N2` + Oc1cc(-c2nc(-c3ccccc3)[nH]c2-c2ccncc2)ccc1Cl [L779450] (first compound 0.4 µM, partner dose 0.2 µM), the cell count in assay [1] turned out to be 83.5%; in assay [2] it was 123%; in assay [3] it was 80.7%; in assay [4] it was 85.8%; in assay [5], 91.4%; in assay [6], 135%.
On to `OCCn1cc(-c2cnc3nnn(Cc4ccc5ncccc5c4)c3n2)cn1` + N#Cc1c(O)c2c(-c3ccc(-c4ccccc4O)cc3)csc2[nH]c1=O [A769662] (first compound 1 µM, partner dose 2 µM), for which the cell count in assay [1] turned out to be 96.6%; in assay [2] it was 92.4%; in assay [3] it was 85.3%; in assay [4], 96.7%; in assay [5] it was 109%; in assay [6] it was 96.9%.
For `NCC(=O)Nc1ccc(-n2nc(C(F)(F)F)cc2-c2ccc3c(ccc4ccccc43)c2)cc1` + O=C1NC(=O)/C(=C/c2ccc(-c3ccc(F)cc3O)o2)S1 [AS252424] (first compound 1 µM, partner dose 1 µM), the cell count in assay [1] was 103%; in assay [2] it was 81.2%; in assay [3], 108%; in assay [4], 49.1%; in assay [5] it was 112%; in assay [6], 64.9%.
`C=CCn1c(=O)c2cnc(Nc3ccc(N4CCN(C)CC4)cc3)nc2n1-c1cccc(C(C)(C)O)n1` + COc1ccc(COc2ccc(Cc3cnc(N)nc3N)cc2OC)cc1 [GW2580] (first compound 0.02 µM, partner dose 1 µM): the cell count in assay [1] stood at 84.4%; in assay [2], 93.4%; in assay [3], 88.9%; in assay [4] it was 108%; in assay [5], 70.8%; in assay [6], 112%.
Consider `Cc1nc(Nc2ncc(C(=O)Nc3c(C)cccc3Cl)s2)cc(N2CCN(CCO)CC2)n1` [dasatanib] + Cc1ccc(NC(=O)c2cccc(N(C)C)c2)cc1NC(=O)c1ccc(O)cc1 [ZM336372] (first compound 0.004 µM, partner dose 2 µM), for which the cell count turned out to be 82.5% in assay [1]; 85.2% in assay [2]; 71.9% in assay [3]; 102% in assay [4]; 103% in assay [5]; 85.7% in assay [6].
Take `CO[C@@H]1[C@H](N(C)C(=O)c2ccccc2)C[C@H]2O[C@]1(C)n1c3ccccc3c3c4c(c5c6ccccc6n2c5c31)C(=O)NC4` [Midostaurin] + CN(C)S(=O)(=O)c1ccc2c(c1)/C(=C/c1cc3c([nH]1)CCCC3)C(=O)N2 [SU6656] (first compound 0.08 µM, partner dose 0.4 µM): the cell count in assay [1] was found to be 56.1%; in assay [2] it was 77%; in assay [3], 58.5%; in assay [4] it was 88.3%; in assay [5], 96.4%; in assay [6], 110%.
As to `C=CCn1c(=O)c2cnc(Nc3ccc(N4CCN(C)CC4)cc3)nc2n1-c1cccc(C(C)(C)O)n1` + CN(NC(=O)CC(=O)NN(C)C(=S)c1ccccc1)C(=S)c1ccccc1 [STA4783] (first compound 0.02 µM, partner dose 0.006 µM), the cell count came to 74% in assay [1]; 83% in assay [2]; 36.9% in assay [3]; 95.1% in assay [4]; 59.8% in assay [5]; 89.8% in assay [6].
Regarding `Cc1nc(Nc2ncc(C(=O)Nc3c(C)cccc3Cl)s2)cc(N2CCN(CCO)CC2)n1` [dasatanib] + Nc1cccc2c1CN(C1CCC(=O)NC1=O)C2=O [lenalidomide] (first compound 0.004 µM, partner dose 1 µM), the cell count in assay [1] came to 63.7%; in assay [2], 76.6%; in assay [3], 63.5%; in assay [4], 89.1%; in assay [5], 89.5%; in assay [6], 73.3%.
Regarding `NC(=O)Nc1cc(-c2cccc(F)c2)sc1C(=O)N[C@H]1CCCNC1` + COc1ccc(-c2ccc3c(N4CCOCC4)nc(N4C[C@@H](C)O[C@@H](C)C4)nc3n2)cc1CO [KU0063794] (first compound 0.02 µM, partner dose 0.02 µM), the cell count in assay [1] came to 86.1%; in assay [2], 92.4%; in assay [3], 90.4%; in assay [4] it was 78%; in assay [5] it was 45.1%; in assay [6] it was 93.9%.
